According to article PMC4336329 (PLoS ONE, 2015):
The whole screen tested about 310,000 compounds, of which about 2,200 (0.71%) showed an effect of 50% or more. Effects have a minus sign here. Some of the results follow.

target: human ether-à-go-go-related gene (hERG) potassium channel (human, UniProt Q12809); assay: primary screen, population patch clamp on CHO cells stably expressing hERG
Sequence (Q12809 whole entry, looked up): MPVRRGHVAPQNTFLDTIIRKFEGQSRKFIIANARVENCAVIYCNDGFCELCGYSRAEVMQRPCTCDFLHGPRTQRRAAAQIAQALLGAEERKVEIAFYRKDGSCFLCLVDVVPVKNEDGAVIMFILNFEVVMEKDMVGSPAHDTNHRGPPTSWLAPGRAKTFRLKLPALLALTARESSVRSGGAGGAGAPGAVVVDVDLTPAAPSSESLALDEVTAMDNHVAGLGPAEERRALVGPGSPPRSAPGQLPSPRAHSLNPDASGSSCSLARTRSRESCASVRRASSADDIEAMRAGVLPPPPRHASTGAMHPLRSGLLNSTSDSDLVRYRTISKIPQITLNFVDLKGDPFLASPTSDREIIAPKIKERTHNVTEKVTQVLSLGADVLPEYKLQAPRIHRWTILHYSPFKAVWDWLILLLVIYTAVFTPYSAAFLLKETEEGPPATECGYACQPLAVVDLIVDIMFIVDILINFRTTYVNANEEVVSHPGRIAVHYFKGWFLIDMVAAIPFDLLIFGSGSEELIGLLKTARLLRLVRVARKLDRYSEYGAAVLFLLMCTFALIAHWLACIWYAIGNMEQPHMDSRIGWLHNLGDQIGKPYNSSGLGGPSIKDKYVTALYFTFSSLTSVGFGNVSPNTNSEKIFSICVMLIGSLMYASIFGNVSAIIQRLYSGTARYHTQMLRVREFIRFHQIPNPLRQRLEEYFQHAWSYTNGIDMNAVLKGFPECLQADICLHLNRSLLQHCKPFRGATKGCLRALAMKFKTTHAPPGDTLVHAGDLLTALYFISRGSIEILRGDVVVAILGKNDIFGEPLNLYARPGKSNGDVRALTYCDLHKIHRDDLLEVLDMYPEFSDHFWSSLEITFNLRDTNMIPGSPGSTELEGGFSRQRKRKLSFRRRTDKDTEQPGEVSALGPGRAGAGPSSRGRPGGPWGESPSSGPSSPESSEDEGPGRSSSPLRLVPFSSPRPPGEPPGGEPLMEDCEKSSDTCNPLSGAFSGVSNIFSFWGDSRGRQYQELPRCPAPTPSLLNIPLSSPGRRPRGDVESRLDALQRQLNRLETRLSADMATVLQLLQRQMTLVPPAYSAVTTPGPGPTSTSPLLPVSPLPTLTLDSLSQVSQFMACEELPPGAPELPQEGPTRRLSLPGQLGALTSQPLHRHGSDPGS

| SMILES | hERG current change (%, negative = inhibition) at 1uM |
| --- | --- |
| COc1ccc(CCNC(=O)c2cccc(NS(=O)(=O)c3ccccc3F)c2)cc1OC | 13.9% |
| O=C(NN=C1CCCC1)c1cccs1 | 8.69% |
| CCOc1ccc(NC(=O)CC2C(=O)N(CC)C(=S)N2CCN2CCOCC2)cc1 (centres unmarked) | 5.68% |
| Cc1ccc(S(=O)(=O)n2cnc3cc([N+](=O)[O-])ccc32)cc1C | -4.95% |
| CN(C)C(CNC(=O)c1cccc(S(=O)(=O)NCc2ccccc2)c1)c1ccco1 (centres unmarked) | 2.97% |
| CCn1c(SCC(=O)NCC2CCCO2)nc2c(c1=O)SC(C)C2 (centres unmarked) | 16.9% |
| Cl.c1ccc(COc2cccc(CNCc3cccnc3)c2)cc1 | 14% |
| NC(=O)CC1NC(=O)c2cc([N+](=O)[O-])cc(I)c2OCCC(C(N)=O)NC(=O)[C@@H]2CCCN2C1=O (some centres unmarked) | 8.11% |
| Cc1ccnc(NC(=O)CCC(=O)N(CC(=O)NCc2ccccc2)Cc2cccs2)c1 | -0.178% |
| COc1ccccc1C(=O)NNC(=O)CCC(=O)NCc1ccccc1 | 7.06% |
| Cn1c(SCC(=O)N2CCOCC2)nnc1-c1cccc(NC(=O)c2ccccc2F)c1 | 13.6% |
| Nc1nc(SC2c3cccc4cccc(c34)C2NS(=O)(=O)c2ccccc2)n[nH]1 (centres unmarked) | 7.57% |
| CCOc1ccc(NC(=O)NNC(=O)c2cccnc2)cc1 | -0.169% |
| CCn1c(SCC(=O)OCC(=O)N2c3ccccc3NC(=O)C2(C)C)nnc1-c1ccco1 | 2.83% |
| O=C(CNC(=O)c1ccccc1Cl)NC1CCN(Cc2ccccc2)CC1 | 19.3% |
| CCCCC#Cc1cncc(C(=O)N/N=C/c2cccc(OC)c2)c1 | 2.9% |
| CC(=O)Nc1sc(NC(=O)c2ccco2)nc1-c1cccs1 | 7.58% |
| COc1cccc(NC(=O)CN(C)C(=O)Cc2ccc3c(c2)CCC3)c1 | 3.69% |
| Cc1ccc(C)c(Cn2nnc3c(=O)[nH]c(C4CCN(S(=O)(=O)c5ccc(S(=O)(=O)NC6CC6)cc5)CC4)nc32)c1 | 19.1% |

| SMILES | hERG current change (%, negative = inhibition) at 1uM |
| --- | --- |
| CCOC(=O)c1cc(C)sc1NC(=O)C1CCC1 | 8.42% |
| Cc1ccc(N2C(=O)c3ccccc3NC2(C(=O)O)c2ccccc2)cc1Cl (centres unmarked) | 2.47% |
| Nc1c(C(=O)NC2CC2)sc2nc3c(c(-c4ccco4)c12)CC/C3=C/c1ccco1 | 14.9% |
| CC(=O)Nc1nc(C(=O)O)cs1 | 13.9% |
| CC(=O)Nc1ccc(SC[C@H](Cc2ccccc2)N2CC[C@@H](C)CCC2=O)cc1 | 13.1% |
| O=C(Cc1ccccc1)Nc1c[nH]c(=O)[nH]c1=O | 10.2% |
| O=C(OCc1ccccc1Cl)c1cc([N+](=O)[O-])ccc1N1CCOCC1 | 3.35% |
| CCn1nc(NS(=O)(=O)c2ccc([N+](=O)[O-])cc2)c2cc3cccc(C)c3nc21 | 29.6% |
| N#Cc1cc([N+](=O)[O-])cnc1Nc1ccccc1 | 7.07% |
| CCCC(=O)Nc1sc2c(c1C#N)CCCCC2 | -2.07% |
| COc1ccc(S(=O)(=O)N2CCN(C(=O)c3ccc([N+](=O)[O-])o3)CC2)cc1 | -6.05% |
| CCOc1ccc(-n2c(O)c(/C=C3\C=Nc4ccccc43)c(=O)[nH]c2=O)cc1 | 9.43% |
| Cn1cc([N+](=O)[O-])c(C(=O)Nc2nc(-c3ccc(Cl)cc3)cs2)n1 | 12.6% |
| CC(=O)c1ccc(OCCCC(=O)Nc2cccc(S(=O)(=O)N(C)C)c2)cc1 | -2.74% |
| C[C@@H](O)Cc1cn(CC(=O)NCCCCCCCCCCC(=O)N2CCNCC2)nn1 | 8.24% |
| Cc1ccc(OCC(=O)Nc2ccc3c(c2)OC(F)(F)O3)c([N+](=O)[O-])n1 | 19.4% |
| Cc1ccc2c(c1)N(CC(=O)NCCCN1CCCCC1)C(=O)CO2 | 0.609% |
| CCOC(=O)c1c(C)[nH]c(C(=O)CN(C)CC(=O)Nc2ccccc2C(F)(F)F)c1C | 7.04% |
| CCOCC(=O)N1CCN(c2ccccc2OC)CC1 | 11.8% |

| SMILES | hERG current change (%, negative = inhibition) at 1uM |
| --- | --- |
| Cc1noc(C)c1CSCC(=O)NCCN1C(=O)S/C(=C\c2ccccc2F)C1=O | 3.65% |
| CCn1ncc(C2=NOC(C(=O)Nc3c(C)n(C)n(-c4ccccc4)c3=O)C2)c1C (centres unmarked) | 19.1% |
| COc1cccc(-c2nnc3n2N=C(c2cc(OC)ccc2OC)CS3)c1 | 3.74% |
| COc1ccc2c(c1)Cc1sc(NC(C)=O)nc1-2 | 13% |
| O=C(/C=C/c1ccccc1)CC(=O)c1ccccc1O | 14.5% |
| O=C(Nc1ccc(OCC(=O)N2CCC(Cc3ccccc3)CC2)cc1)c1ccco1 | 6.07% |
| COCCN(CC(=O)NC1CCCCC1)C(=O)CCCC(=O)Nc1ccccn1 | 7.49% |
| O=S1(=O)CC(O)C(N2CCC(c3ccccc3)CC2)C1 (centres unmarked) | 14% |
| N#Cc1cc(Sc2ccccn2)c(Sc2ccccn2)cc1C#N | 1.22% |
| COC(=O)/C=C(\C)NC(=O)c1ccccc1Cl | 19.4% |
| O=C(COC(=O)C1=Cc2ccccc2OC1)NC1CCCC1 | 16% |
| CCOc1ccc(NC(=O)c2sc3nc(N4CCOCC4)c4c(c3c2N)CC(C)(C)OC4)cc1 | 15.1% |
| COc1ccccc1CNc1nc2nc3c(c(=O)n2[nH]1)CCC3 | -2.43% |
| CCOC(=O)CN1CC23C=CC(O2)C(C(=O)O)C3C1=O (centres unmarked) | 3.94% |
| CCCCCCN1CC(C(=O)OCC)C(=O)C1=O (centres unmarked) | -1.64% |
| O=C(COC(=O)c1ccccc1[N+](=O)[O-])c1ccc(C2CCCCC2)cc1 | 10.4% |
| CCOc1ncccc1C(=O)OCC(=O)c1ccc(Cl)s1 | 6.4% |
| CC(=O)c1c(C)[n+]([O-])c2ccc3c(non3O)c12 | 8.03% |
